# Test results reported in patent publication US10299477B2 (priority 2015, dated 2019).
# Experiments:
# Type in all cases: in vivo
# Alternaia brassicicola = test: Test Example C: Alternaria sooty spot on cabbage; conditions: Alternaria sooty spot on cabbage
# Source text: [Test Example C] Alternaria Sooty Spot on Cabbage
# Seeds of a test plant (cabbage variety: Shikidori) were planted followed by cultivating until the cotyledons extended.
# Puccinia recondita = test: Test Example E: Brown rust on wheat; conditions: for Test E control value: Brown rust on wheat
# Source text: [Test Example E] Brown Rust on Wheat
# Botrytis cinerea = test: Test Example B: Gray mold on tomato; conditions: for Test B control value: Gray mold on tomato
# Source text: [Test Example B] Gray Mold on Tomato
# Seeds of a test plant (tomato variety: Oogata Fukuju) were planted followed by cultivating until three to five first leaves (true leaves) appeared.
# [1] = system: Blumeria graminis f sp. hordei; test: Test Example D: Powdery mildew on barley; conditions: for Test D control value: Powdery mildew on barley
# Source text: [Test Example D] Powdery Mildew on Barley
# After the sprayed dilutions were dried, conidia of Blumeria graminis f sp. hordei were inoculated to the plants by shaking off.
SMILES,Test C control value (Alternaia brassicicola),Test E control value (Puccinia recondita),Test B control value (Botrytis cinerea),Test D control value [1],Test C (control value class) (Alternaia brassicicola; 250 ppm spray),"Test E (control value class) (Puccinia recondita; brown rust on wheat, Puccinia recondita, 250 ppm spray)","Test B (control value class) (Botrytis cinerea; gray mold on tomato, Botrytis cinerea, 250 ppm spray)","Test D (control value class) ([1]; powdery mildew on barley, 250 ppm spray)"
CCCn1c(-c2c(F)cccc2F)c(-c2cc(OC)cc(OC)c2Br)ccc1=O [Compound 42],H (H shows more than 50% of control values),H (H shows more than 50% of control values),H (H shows more than 50% of control values),H (H shows more than 50% of control values),–,–,–,–
Cn1c(-c2c(F)cccc2F)c(-c2ccccc2)cc(Br)c1=O [Compound 51],H (H shows more than 50% of control values),H (H shows more than 50% of control values),H (H shows more than 50% of control values),L (L shows 50% or less of control values),–,–,–,–
COc1cc(OC)cc(-c2ccc(=O)n(C)c2-c2c(F)cccc2F)c1 [Compound 28],H (H shows more than 50% of control values),H (H shows more than 50% of control values),H (H shows more than 50% of control values),L (L shows 50% or less of control values),–,–,–,–
CCn1c(-c2c(F)cccc2F)c(-c2c(F)ccc(OC)c2F)ccc1=O [Compound 104],H (H shows more than 50% of control values),H (H shows more than 50% of control values),H (H shows more than 50% of control values),H (H shows more than 50% of control values),–,–,–,–
CCn1c(-c2ccncc2Cl)c(-c2ccccc2)ccc1=O [Compound 13],H (H shows more than 50% of control values),H (H shows more than 50% of control values),H (H shows more than 50% of control values),H (H shows more than 50% of control values),–,–,–,–
CCn1c(-c2ncc(Cl)cc2Cl)c(-c2c(F)cccc2F)ccc1=O [Compound 6],H (H shows more than 50% of control values),H (H shows more than 50% of control values),H (H shows more than 50% of control values),H (H shows more than 50% of control values),–,–,–,–
CCn1c(-c2c(F)cccc2F)c(-c2ccccc2F)cc(Br)c1=O [Compound 142],H (H shows more than 50% of control values),H (H shows more than 50% of control values),H (H shows more than 50% of control values),H (H shows more than 50% of control values),–,–,–,–
CCn1c(-c2ncc(OC)cc2Cl)c(-c2c(F)cccc2F)ccc1=O [Compound 8],H (H shows more than 50% of control values),H (H shows more than 50% of control values),H (H shows more than 50% of control values),H (H shows more than 50% of control values),–,–,–,–
Cn1c(-c2c(F)cccc2F)c(-c2ccccc2I)ccc1=O [Compound 114],L (L shows 50% or less of control values),H (H shows more than 50% of control values),H (H shows more than 50% of control values),L (L shows 50% or less of control values),–,–,–,–
CCn1c(-c2c(F)cccc2F)c(-c2cc(OC)ccc2F)cc(Cl)c1=O [Compound 92],H (H shows more than 50% of control values),H (H shows more than 50% of control values),H (H shows more than 50% of control values),H (H shows more than 50% of control values),–,–,–,–
CCCn1c(-c2c(F)cccc2F)c(-c2cc(OC)cc(OC)c2)ccc1=O [Compound 41],L (L shows 50% or less of control values),H (H shows more than 50% of control values),L (L shows 50% or less of control values),L (L shows 50% or less of control values),–,–,–,–
CCn1c(-c2c(F)cccc2F)c(-c2cc(Cl)ccc2OC)cc(Cl)c1=O [Compound 124],H (H shows more than 50% of control values),H (H shows more than 50% of control values),H (H shows more than 50% of control values),H (H shows more than 50% of control values),–,–,–,–
CCn1c(-c2c(F)cc(Cl)cc2F)c(-c2cc(OC)cc(OC)c2Cl)ccc1=O [Compound 121],H (H shows more than 50% of control values),H (H shows more than 50% of control values),H (H shows more than 50% of control values),H (H shows more than 50% of control values),–,–,–,–
COc1ccc(Cl)c(-c2cc(Br)c(=O)n(C)c2-c2c(F)cccc2F)c1 [Compound 61],H (H shows more than 50% of control values),H (H shows more than 50% of control values),H (H shows more than 50% of control values),H (H shows more than 50% of control values),–,–,–,–
COc1ccc(F)c(-c2cc(Br)c(=O)n(C)c2-c2c(F)cccc2F)c1F [Compound 109],H (H shows more than 50% of control values),H (H shows more than 50% of control values),H (H shows more than 50% of control values),L (L shows 50% or less of control values),–,–,–,–
CCn1c(-c2c(F)cc(OC)cc2F)c(-c2ccc(F)cc2Cl)ccc1=O [Compound 35],H (H shows more than 50% of control values),H (H shows more than 50% of control values),H (H shows more than 50% of control values),H (H shows more than 50% of control values),–,–,–,–
CCn1c(-c2c(F)cccc2F)c(-c2ccccc2Cl)cc(Cl)c1=O [Compound 75],H (H shows more than 50% of control values),H (H shows more than 50% of control values),H (H shows more than 50% of control values),H (H shows more than 50% of control values),–,–,–,–
Cn1c(-c2c(F)cccc2F)c(-c2ccccc2)ccc1=O [Compound 47],H (H shows more than 50% of control values),H (H shows more than 50% of control values),H (H shows more than 50% of control values),H (H shows more than 50% of control values),–,–,–,–
CCN1C(=O)CCC(c2cc(OC)cc(OC)c2Cl)=C1c1c(F)cccc1F [Compound 117],H (H shows more than 50% of control values),H (H shows more than 50% of control values),H (H shows more than 50% of control values),H (H shows more than 50% of control values),–,–,–,–
CCn1c(-c2c(F)cccc2F)c(-c2cc(Br)ccc2OC)cc(Br)c1=O [Compound 125],H (H shows more than 50% of control values),H (H shows more than 50% of control values),H (H shows more than 50% of control values),L (L shows 50% or less of control values),–,–,–,–
COc1ccc(Cl)c(-c2ccc(=O)n(C(C)C)c2-c2c(F)cccc2F)c1 [Compound 412],–,–,–,–,H (H shows more than 50% of control values),H (H shows more than 50% of control values),H (H shows more than 50% of control values),H (H shows more than 50% of control values)
CCn1c(-c2c(F)cccc2F)c(-c2ccccc2Cl)cc(Br)c1=O [Compound 76],H (H shows more than 50% of control values),H (H shows more than 50% of control values),H (H shows more than 50% of control values),H (H shows more than 50% of control values),–,–,–,–
Cn1c(-c2c(F)cccc2F)c(-c2ccccc2Cl)cc(Cl)c1=O [Compound 78],H (H shows more than 50% of control values),H (H shows more than 50% of control values),H (H shows more than 50% of control values),H (H shows more than 50% of control values),–,–,–,–
